This is one part of the list. Repeats are few or missing, and single values can be far off.
How the values were obtained:
[1] = system: hiPSC-derived cardiomyocytes; assay: time to death of most cells in well after compound addition (days); higher = less cardiotoxic; conditions: screen: 1; 10 µM
[2] = system: hiPSC-derived cardiomyocytes; assay: time to death of most cells in well after compound addition (days); higher = less cardiotoxic; extreme values may be limits of the assay; conditions: 10 µM

Structure (SMILES)	time to death of most cells in well [1]	time to death of most cells in well ([2]; screen: 2)	time to death of most cells in well ([2]; screen: 3)	time to death of most cells in well ([2]; screen: 4)
Cc1c(CN2CCN(C(=O)[C@H](C)O)CC2)sc2c(N3CCOCC3)nc(-c3cnc(N)nc3)nc12 [Apitolisib (GDC-0980, RG7422)]	4	2	> 7	6
CC(C)(C)NS(=O)(=O)c1cncc(-c2cc(F)c3nc(N)nn3c2)c1	1	1.5	3.5	> 7
C/C(O)=C(\C#N)C(=O)Nc1cc(Br)ccc1Br	4.5	> 7	> 7	> 7
c1cc(-c2cnn3cc(-c4ccc(OCCN5CCCCC5)cc4)cnc23)ccn1 [Dorsomorphin 2HCl]	3.5	> 7	> 7	> 7
CN1CCN(CCOc2cc(OC3CCOCC3)c3c(Nc4c(Cl)ccc5c4OCO5)ncnc3c2)CC1 [Saracatinib (AZD0530)]	> 7	> 7	> 7	> 7
Cc1nc(NC(=O)N2CCC[C@H]2C(N)=O)sc1-c1csc(C(C)(C)C)n1	> 7	> 7	> 7	> 7
CN1CCN(c2ccc(Nc3cc(-c4cccc(-n5ccc6cc(C7CC7)cc(F)c6c5=O)c4CO)cn(C)c3=O)nc2)CC1	1	4	> 7	> 7
O=C(Nc1cc(C(F)(F)F)cc(C(F)(F)F)c1)c1cc(Cl)ccc1O	1	0.5	3	> 7
CCCNC(=O)c1cn2ncnc(Nc3cc(C(=O)NC4CC4)ccc3C)c2c1C	> 7	> 7	> 7	> 7
O=C(O)c1ccc(-c2c[nH]c3ncc(-c4ccccc4)cc23)cc1C1CCCC1	> 7	> 7	> 7	> 7
COc1cc2ncnc(Oc3cccc(NC(=O)Nc4cc(C(C)(C)C(F)(F)F)on4)c3)c2cc1OC	6	6.5	> 7	> 7
C#Cc1cccc(Nc2ncnc3cc4c(cc23)OCCOCCOCCO4)c1 [Icotinib]	> 7	> 7	> 7	> 7
CC1(C)CNc2cc(NC(=O)c3cccnc3NCc3ccncc3)ccc21 [Motesanib Diphosphate (AMG-706)]	> 7	> 7	> 7	> 7
Cc1cc(Nc2ncc3c(n2)N(C)C(=O)N(c2cc(NC(=O)c4cccc(C(F)(F)F)c4)ccc2C)C3)n(C)n1	2.5	1.5	3	6.5

Source: the supplement of paper PMC6828730
